From PubChem BioAssay AID1240 (Sanford-Burnham Center for Chemical Genomics, 2008)
Where “and” joins values, the source holds several entries; their conditions need not be identical. Identical values can stand only once. About 800 (1.6%) of roughly 50,000 compounds showed an effect of 50% or more. The list shows a part of the results.

The compounds below were run against Bcl-2-like protein 10 (Homo sapiens) (UniProt Q9HD36) (assay: TR3 peptide-Bcl-B binding displacers, biochemical primary FP assay, phenotype converters (AID 1240;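 further: 0% = Bcl-B with tracer peptide and DMSO and 100% = tracer peptide lacking Bcl-B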)). Conditions: GST-Bcl-B / FITC-TR3 peptide fluorescence polarization; stronger effect = higher value; compound at 3.75 mg/L.
Sequence of UniProt Q9HD36 (Q9HD36 whole entry, looked up): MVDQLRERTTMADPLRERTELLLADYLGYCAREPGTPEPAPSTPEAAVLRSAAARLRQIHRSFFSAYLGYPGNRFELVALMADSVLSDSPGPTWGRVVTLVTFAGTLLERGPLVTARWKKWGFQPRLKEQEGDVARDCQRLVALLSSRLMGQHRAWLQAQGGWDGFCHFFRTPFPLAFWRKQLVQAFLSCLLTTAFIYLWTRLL
For `CCC(N)C(=O)c1c(C)cc(C)cc1C` (stereo not drawn), the displacement was -14.6%.
`COc1ccc(C(=O)c2ccc(N3CCNCC3)c(F)c2)cc1Br` showed a displacement of -11%.
For `COC(=O)c1cc(NC(C)=O)cc(Br)c1[N+](=O)[O-]`, the displacement was -10.7%.
Work on `CCc1ccc(CNCCc2ccccc2OC)cc1` yielded a displacement of -13.9%.
For `Cc1ccccc1-n1c(=S)[nH]c2ccccc2c1=O`, the displacement was -11% and -8.7%.
Work on `Cc1cc(OC(C)C(=O)O)c2c3c(c(=O)oc2c1)CCC3` (stereo not drawn) yielded a displacement of 9.6%.
`CCC(=O)N(Cc1ccc(OC)c(OC)c1)C1CC(C)N(C)CC1C` (stereo not drawn) gave a displacement of -3.6%.
Work on `C=CCc1cc(/C=C2/C(=O)NC(=O)N(C)C2=O)cc(OC)c1O` yielded a displacement of -6.6%.
With `O=C(COc1ccc([N+](=O)[O-])cc1)Nc1ccc(Br)cc1C(=O)c1ccccc1` the displacement was 4.7%.
With `CCCCCn1c(=O)c(C(=O)Nc2ccccc2F)c(O)c2ccccc21` the displacement was 3.6%.
`COC(=O)C1C2C(=O)N(c3ccccc3)C(=O)C12c1ccc(Cl)cc1` (stereo not drawn) gave a displacement of -2.3%.
With `COC(=O)CCP(C)(=O)OCC(C)C` (stereo not drawn) the displacement was 16.4%.
Work on `Cc1ccc(/C=C2/C(=O)NC(=O)N(c3ccc(C(C)C)cc3)C2=O)o1` yielded a displacement of 49%.
Compound `Cc1cc(/C=C2/C(=O)NC(=O)N(C)C2=O)c(C)n1-c1ccccc1` has a displacement of 49.3%.
Work on `COc1ccc(N2C(=O)NC(=O)/C(=C/c3ccc(-c4cccc(Cl)c4)o3)C2=O)cc1` yielded a displacement of 69%.
`CCOc1ccc(N2C(=O)NC(=O)/C(=C/c3ccc(C)cc3)C2=O)cc1` showed a displacement of 0.8%.
Compound `Cc1cc(OCC(=O)c2ccc(Cl)cc2)c2c3c(c(=O)oc2c1)CCC3` has a displacement of 8.3%.
`COc1ccc(CN2CCN(C(=O)Cc3ccccc3)CC2)c(OC)c1OC` gave a displacement of -13.4%.
With `COc1ccc(C2c3c(c4ccccc4oc3=O)Oc3c2c(=O)oc2ccccc32)cc1Cn1nc(C)c([N+](=O)[O-])c1C` the displacement was 14.2%.
`CCNc1cc2oc(=O)cc(C(F)(F)F)c2cc1C` was tested, and the displacement was 105%.
`Cc1cc(OCc2ccc(F)cc2)c2c3c(c(=O)oc2c1)CCC3` gave a displacement of 6.5%.
With `COc1cc(C(c2c(C)[nH]n(-c3ccccc3)c2=O)c2c(C)[nH]n(-c3ccccc3)c2=O)cc(OC)c1OC` the displacement was -1.7%.
With `CC12CCC(C/C1=N/O)C(C)(C)N2` (stereo not drawn) the displacement was 10.5%.
Compound `COc1cccc(CN2CCN(Cc3cc(Br)ccc3O)CC2)c1` has a displacement of 1.4%.
In the case of `O=C(COc1ccc(Cl)cc1)N1CCN(Cc2cccc([N+](=O)[O-])c2)CC1`, the displacement is reported as 15.3%.
`N/C(=N\[N+](=O)[O-])N1CCN(C(=O)c2ccc(Cl)cc2)CC1` gave a displacement of 5%.
For `O=[N+]([O-])N(CCCCN(CN1CCOCC1)[N+](=O)[O-])CN1CCOCC1`, the displacement was -5.3%.
`O=C1CN(O)C(c2ccccc2Cl)=c2cc(Br)ccc2=N1` gave a displacement of -2.6%.
With `Cc1cccc(-n2c(/C=C\c3ccc(Cl)cc3)nc3ccccc3c2=O)c1` the displacement was -5.1%.
`CCC1(C)CC(CCNCc2ccc(OC)cc2)(c2ccc(OC)cc2)CCO1` (stereo not drawn) was tested, and the displacement was 4.6%.
`CN(C)c1ccc(C=C2C(=O)NC(=O)NC2=O)cc1[N+](=O)[O-]` gave a displacement of -0.9%.
With `O=[N+]([O-])c1ccc(NCCc2ccccc2)c2ncccc12` the displacement was -1.2%.
With `COc1cc(OC)c(OC)cc1CN1CCN(C(=O)Cc2ccccc2)CC1` the displacement was -17.9%.
`O=Cc1cn(Cc2cccc3ccccc23)c2ccccc12` was tested, and the displacement was -2.4%.
With `Clc1ccc(OCCCn2ccnc2)cc1` the displacement was 15.9%.
Work on `C=CCN1C(=O)/C(=C\C=C\c2ccco2)C(=O)NC1=S` yielded a displacement of -63.2%.
`O=C1NC(=O)N(Cc2ccccc2)C(=O)/C1=C\C=C\c1ccco1` was tested, and the displacement was 11.3%.
With `Cc1ccc(NC(=O)C(Cl)(Cl)Cl)cc1Cl` the displacement was 8.5%.
`Cc1ccc(N2C(=O)NC(=O)/C(=C\C=C\c3ccccc3)C2=O)cc1` was tested, and the displacement was 21.4%.
`COc1cccc(CN2CCN(C(=O)Cc3ccccc3)CC2)c1OC` showed a displacement of 13.3%.
In the case of `Cc1ccc(-c2nc3ccccc3c(=O)n2-c2ccncc2)cc1`, the displacement is reported as -3.6%.
With `c1ccc2c(CNC34CC5CC(CC(C5)C3)C4)c[nH]c2c1` the displacement was 7.8%.
For `Cc1ccc(-c2ccc(C=C3C(=O)NC(=S)NC3=O)o2)cc1[N+](=O)[O-]`, the displacement was 27.8%.
`O=[N+]([O-])c1cccc(C2N3CCCN23)c1` (stereo not drawn) showed a displacement of -1.2%.
Compound `COc1ccccc1/C=C1/C(=O)C2CCN1CC2` has a displacement of 8.7%.
`COc1ccc(CCNCc2ccco2)cc1` was tested, and the displacement was -4.1%.
`CCCCOC(=O)COc1cc(C)cc2oc(=O)c3c(c12)CCC3` was tested, and the displacement was 9.5%.
In the case of `Cc1ccc(N2C(=O)NC(=O)/C(=C\c3ccccc3OCc3ccc(C(=O)O)cc3)C2=O)cc1`, the displacement is reported as -9.2%.
`O=C1C(=Cc2ccc(-c3ccccc3[N+](=O)[O-])o2)C(=O)N(c2ccccc2)C(=S)N1c1ccccc1` showed a displacement of 16.4%.
`CC(C)OC(=O)N1CCN(/C(N)=N/[N+](=O)[O-])CC1` gave a displacement of 9.5%.
`COc1ccc(CNCCc2cccc(Cl)c2)cc1OC` gave a displacement of -4.2%.
Work on `COc1cccc(-n2c(/C=C/c3ccc(O)c(O)c3)nc3ccccc3c2=O)c1` yielded a displacement of 27.7%.
With `Cc1cc(OCC(N)=O)c2c3c(c(=O)oc2c1)CCC3` the displacement was 9.2%.
Work on `COc1ccccc1-n1c(=S)[nH]c2ccccc2c1=O` yielded a displacement of -0.1%.
`N#CC(C#N)=Cc1cccc2ccccc12` was tested, and the displacement was 5.7%.
With `O=[N+]([O-])c1ccc(CCNC2CCCCC2)cc1` the displacement was 3.9%.
Compound `Brc1ccc(CN2CCNCC2)cc1` has a displacement of -8.5%.
`CC(C)(C)c1cc(C=C2C(=O)NC(=S)NC2=O)cc(C(C)(C)C)c1O` showed a displacement of -4.2%.
With `CCOc1ccc(N2C(=O)NC(=O)/C(=C\c3ccc(C)o3)C2=O)cc1` the displacement was 11.6%.
`COc1ccc(Br)cc1CN1CCN(Cc2ccc(F)cc2)CC1` was tested, and the displacement was 13.7%.
`C=CCN1C(=O)NC(=O)C(=Cc2cccn2C)C1=O` showed a displacement of 9.9%.
`O=[N+]([O-])c1ccc(CN2CCN(Cc3cccc(Br)c3)CC2)cc1` showed a displacement of -12.8%.
`O=[N+]([O-])c1ccccc1CNCCc1ccc(F)cc1` gave a displacement of 2.4%.
In the case of `Clc1ccccc1CNCCc1ccc2c(c1)OCO2`, the displacement is reported as -17.9%.
With `CC(C)CCP(=O)(O)c1ccccc1` the displacement was -9.8%.
`COc1cccc(CNCCc2ccc(Cl)cc2Cl)c1` showed a displacement of 2.7%.
With `CN(C)c1ccc(/C=C/c2nc3ccc(I)cc3c(=O)n2-c2ccccc2)cc1` the displacement was 3.9%.
For `O=C(O)C1C2CCC(O2)C1C(=O)Nc1ccc(Cl)cc1` (stereo not drawn), the displacement was 2.1%.
With `Cc1ccc(N=Cc2c(O)n(C)c(=O)n(C)c2=O)cc1` the displacement was 0.5%.
Work on `O=C(O)[C@H]1C2CCCCC2=C2CCCCC2[C@@H]1c1ccccc1` (stereo partly drawn) yielded a displacement of -0.7%.
Compound `N#CC(C#N)=Cc1cc([N+](=O)[O-])ccc1Cl` has a displacement of -15%.
Work on `N/C(=N\[N+](=O)[O-])N/N=C\c1ccc(-c2ccc([N+](=O)[O-])cc2)o1` yielded a displacement of -1.4%.
Work on `O=c1[nH]c2ccccc2c(=O)n1-c1ccccc1` yielded a displacement of -12.7%.
In the case of `O=C1NC(=O)N(c2cccc(Br)c2)C(=O)/C1=C/c1ccco1`, the displacement is reported as 5.2%.
Compound `N#CCCN1CN(c2ccc(Cl)cc2)CN/C1=N\[N+](=O)[O-]` has a displacement of 11.2%.
`CCOc1cc(C=C2C(=O)NC(=S)NC2=O)ccc1OCc1c(C)no[n+]1[O-]` gave a displacement of 14.2%.
Compound `O=C(CNS(=O)(=O)c1ccccc1)Nc1ccc(Br)cc1C(=O)c1ccccc1` has a displacement of 12%.
`Cc1ccc(N2C(=O)CC(=O)N(C)C2=S)cc1` showed a displacement of 10.5%.
Work on `Oc1ccc(Br)cc1CN1CCN(Cc2ccccc2Cl)CC1` yielded a displacement of -11.7%.
`N/C(=N\[N+](=O)[O-])N/N=C\c1ccc(-c2cccc([N+](=O)[O-])c2)o1` showed a displacement of 7.3%.
With `COc1ccc(C=C2C(=O)NC(=O)NC2=O)cc1OCc1ccc(Cl)cc1Cl` the displacement was 150%.
Work on `O=C1NC(=O)C(=Cc2ccccc2Cl)C(=O)N1` yielded a displacement of 9.8%.
For `O=C1NC(=S)NC(=O)C1=Cc1ccc(OCc2ccccc2)c(OCc2ccccc2)c1`, the displacement was 9.8%.
For `O=C1CC(=O)N(c2ccc(I)cc2)C(=O)N1`, the displacement was 1.4%.
`CCC1(C)CC(CCNCc2ccc(OC)c(OC)c2)(c2ccc(C)cc2)CCO1` (stereo not drawn) was tested, and the displacement was -7.2%.
`COc1ccc(CN2CCN(Cc3cccc(OC)c3)CC2)cc1` was tested, and the displacement was -1%.
`CCCCCn1c(=O)c(C(=O)Nc2ccccc2Cl)c(O)c2ccccc21` showed a displacement of 7.8%.
`CC(C(=O)c1ccc(Cl)cc1Cl)n1cncn1` (stereo not drawn) showed a displacement of -2.3%.
`COc1cc2c(cc1OC)CC(C)(C)[N+](C)=C2` was tested, and the displacement was 3.8%.
Compound `Cc1ccc(-n2c(=O)[nH]c3ccccc3c2=O)cc1` has a displacement of 0.3%.
`O=[N+]([O-])c1nonc1NCn1nnc2ccccc21` showed a displacement of 16.2%.
In the case of `O=c1c2ccccc2nc(/C=C/c2ccc(Cl)cc2)n1-c1ccccc1O`, the displacement is reported as 6.8%.
With `O=Cc1cn(Cc2ccccc2F)c2ccccc12` the displacement was 3.2%.
With `CCC(C)N1CCN(Cc2ccc(OC)c(OC)c2OC)CC1` (stereo not drawn) the displacement was -1.4%.
Work on `COc1ccc(Br)cc1CN1CCN(C(=O)COc2ccc(Cl)cc2)CC1` yielded a displacement of 8%.
In the case of `Cc1cccc(-n2c(-c3ccccc3F)nc3ccccc3c2=O)c1`, the displacement is reported as 5.6%.
With `COc1cccc(-n2c(/C=C/c3ccco3)nc3ccccc3c2=O)c1` the displacement was 106%.
With `COc1ccc(C2c3c(c4ccccc4oc3=O)Oc3c2c(=O)oc2ccccc32)cc1` the displacement was 16.4%.
`O=c1c2ccccc2nc(-c2ccco2)n1-c1cccnc1` was tested, and the displacement was -6.1%.
`Clc1ccc(CCN(Cc2ccco2)Cc2ccco2)c(Cl)c1` was tested, and the displacement was -2.6%.
For `O=C1NC(=O)N(Cc2ccccc2)C(=O)/C1=C/c1ccc2c(c1)OCO2`, the displacement was 13.8%.
With `CC(Cc1ccccc1)NC(=O)NC(=O)Cc1ccccc1` (stereo not drawn) the displacement was 0.6%.
`Cc1nc2ccccc2c(=O)n1-c1ccc(O)cc1` showed a displacement of 20.5%.
For `O=C(CF)NC(Nc1ccc(Br)cc1)C(Cl)(Cl)Cl` (stereo not drawn), the displacement was 8.3%.
In the case of `O=S(=O)(c1ccccc1)N1CC1c1ccccc1` (stereo not drawn), the displacement is reported as 11.6%.
For `O=C1NC(=O)N(c2ccc(Cl)cc2)C(=O)/C1=C\c1cc(Br)cc(Cl)c1O`, the displacement was 4.8%.
`CCc1cc(C)cc(OCCOc2ccccc2C=C2C(=O)NC(=S)NC2=O)c1` showed a displacement of -0.4%.
In the case of `CCN1CCN(c2ccc(C(F)(F)F)cn2)CC1`, the displacement is reported as 12.4%.
`COc1ccc(CN2C(=O)NC(=O)/C(=C\c3ccoc3)C2=O)cc1` gave a displacement of -114%.
Compound `Cc1c(Cl)cccc1NC(=O)C1C(C)(C)C1(C)C` has a displacement of -12.5%.
Compound `O=c1c2ccccc2nc(/C=C/c2ccccc2)n1-c1ccccc1[N+](=O)[O-]` has a displacement of -9%.
Work on `CC1CN(c2ccc([N+](=O)[O-])c(N3CCOCC3)c2)CCN1` (stereo not drawn) yielded a displacement of 2.5%.
`CCOc1ccc(N2C(=O)NC(=O)/C(=C\c3cc(OC)c(OC)cc3[N+](=O)[O-])C2=O)cc1` gave a displacement of 10.2%.
